Measurements taken from the supplement of paper PMC4466236.
Whole data set: some 33,000 sequences, median “E-score (dimensionless, -0.5 to 0.5)” near -0.058, cut for the highest 2% near 0.35. This is one part of the list.

system: MvaT; assay: PBM 8-mer E-score (mean of HK and ME arrays) (E-score (dimensionless, -0.5 to 0.5)); higher = stronger relative binding preference; most listed sequences are background and not binding sites
Method: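 Protein binding microarray: GST-tagged full-length MvaT (P. aeruginosa PAO1) bound to two universal double-stranded 60-mer arrays (ME and HK), each with a constant 25-mer primer and a variable 35-mer region covering all 8-mers. The 8-mer E-score (rank-based, range -0.5 to 0.5, >0.45 = specific binding) is the mean of the two arrays.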

Sequence | PBM 8-mer E-score
ATAAGTAG | 0.341
ATGCGAAA | 0.0921
CTTATCTA | 0.209
ACTCAGGG | -0.179
CGAGCGCG | -0.17
CACTAGGG | -0.115
GGACACAC | -0.177
AGTACAAC | 0.164
CAATGCGG | -0.152
AAGTATAG | 0.167
CCTAGTTC | -0.0922
ATTGCGAG | 0.0265
AATCGACA | 0.0138
ACTCGTCG | -0.122
TATTTTCA | 0.277
TCTGGGAA | -0.0482
AGCTACCT | -0.122
GTTCTAGA | 0.07
CTGCTCCA | -0.177
AGCTTTTG | -0.0234
TCGTCGAA | 0.0414
GCCACCAA | -0.112
CACACCAA | -0.000869
ATGTCATA | 0.209
CTTCATGC | -0.0638

Sequence | PBM 8-mer E-score
AGCGTCAC | -0.0128
CTTGACCC | -0.171
AGATCAGG | -0.023
GTTCTATA | 0.212
TAAAGTAA | 0.365
ACCTCAAG | -0.0997
CATTGAAC | 0.173
AATGACAT | 0.166
CCCATAGA | 0.0156
CGCTAAAA | 0.129
GTGCGCAC | 0.118
ACATCGGT | -0.112
AAGAGCAA | -0.00896
GAAAGTAA | 0.314
AAGTGACG | -0.0196
ACCGCCAG | -0.195
CCAGCATA | 0.0576
ACACTTCA | 0.218
CTTCAGGA | 0.184
AGTCAAAA | 0.196
AGAGCTCG | -0.162
GTCTCGGA | -0.186
AGGCTTGC | -0.082
CCTGATAG | -0.116
ATCGGTCC | -0.188

Sequence | PBM 8-mer E-score
ACTTTACC | 0.208
TGGGATAA | 0.0691
TCCTAGGA | -0.237
GGCGCGTA | -0.204
GATATTCC | 0.229
CCCCCCTA | -0.232
CGCATATA | 0.327
TATGCACA | 0.217
ATGATTCC | -0.0464
GAGTCGAA | -0.0785
AAGACTGG | 0.0219
CGACAGAG | -0.143
CGAGTCCG | -0.186
TACTAAGA | 0.213
AGATAGGC | -0.0353
CCTCGTCG | -0.254
CAGGGGTC | -0.34
TGGAGCCA | -0.213
ACCACAGC | -0.0318
CTGCGGAC | -0.187
CTAGTTAA | 0.36
AACTCGGC | -0.00607
GGGTCCAC | -0.22
ACTGCAGA | 0.0352
CTGGAAAA | 0.0443

Sequence | PBM 8-mer E-score
CCCCCGGG | -0.383
TCGTGACA | -0.206
CATACCTA | 0.0109
ACGTGCCG | -0.168
CAATAGAG | 0.113
AGCACGGG | -0.199
GAGGTGGA | -0.206
GCCGAGGA | -0.303
ACCGAAGG | -0.223
AGAAGTAT | 0.294
CGCGTAGA | -0.205
GGAGCAGA | -0.231
AGAAGGTC | -0.168
TACCCACA | 0.0694
GAAACAGA | -0.0327
ATGCCGGA | -0.112
GGCCGGTA | -0.157
TAAGGGTA | 0.0961
CAATAACC | 0.223
TCTCCCCA | -0.0894
ACCCTTCA | -0.0969
CCTTATAG | 0.013
TAGATTGA | 0.0246
ACTAAGCC | 0.047
CCATATCG | -0.0357

Sequence | PBM 8-mer E-score
CTACCTAC | -0.00994
CACAGGTA | -0.0554
AGAAATTA | 0.25
AGAGGAGA | -0.0825
CAACGAAC | -0.137
AACTACTT | 0.294
CAAGCGGG | -0.216
GGGGTCAC | -0.243
GTGGAACA | -0.126
CTGCCGGC | -0.139
AAATATCC | 0.253
ACGCCGAC | -0.216
TCGGTTAA | 0.0426
CGGGTGGA | -0.152
CTGCGAGC | -0.224
ACTGAGAC | -0.0275
ATGGCTTC | -0.171
ATTACGCC | -0.0047
CTCGATTC | -0.0837
GCAAGTAA | 0.224
AACCGAAT | 0.17
ATCTGTCA | -0.0238
AAATTGGT | 0.113
ATTTCCGG | -0.145
ATCTTCAG | 0.162

Sequence | PBM 8-mer E-score
GTGTGGCA | 0.0427
CACCTTGG | -0.261
GCAGGCTA | -0.169
ACGTGGGC | -0.242
CTGCCGGA | -0.117
ATGGACTA | -0.0113
CGTATGAA | 0.0866
CTTCTTTA | 0.159
CACACGAA | -0.0119
AAACCCGC | 0.0889
ATTCCAAT | 0.109
AAGGCGCG | -0.122
ATGCAATC | -0.0112
GTAAATTA | 0.391
CAGGCCGC | -0.214
ACCTTCAG | -0.221
TGGTTACA | -0.0203
ATACCTTC | -0.0131
ACCAGAAG | -0.0454
ACAGACTA | 0.136
CCGGCTCA | -0.137
ATGCCGAG | -0.0941
CCTTTAAC | 0.0835
AATCCTTA | 0.0689
GAAGTCAA | -0.0526

Sequence | PBM 8-mer E-score
AGCCTTTC | -0.127
ATTCAACA | 0.221
AAAAGCCT | 0.0139
ATAGTCAT | 0.111
ATTCGCGA | 0.0198
CCCCCCCG | -0.261
CACGCTCC | -0.305
CAGATATA | 0.237
CGAATCCG | -0.0769
CAAGTATG | 0.259
TCGAGCGA | -0.029
CAAATCAA | 0.127
CCGCACAC | -0.0871
ACACAAAG | 0.0167
AATTGTCC | 0.179
ACAGTACA | 0.0121
AGATCGGA | -0.084
CCTGATTA | 0.045
CCGACTGA | -0.0955
CCGACGCC | -0.328
AATAGGGT | 0.087
CACACTCA | 0.0366
ATGTGGCG | -0.0601
GCCCTCGC | -0.307
GTGTATAA | 0.202

Sequence | PBM 8-mer E-score
CCCGGGCC | -0.366
AGCCTCCC | -0.284
ATACACTA | 0.225
GAAACGAC | -0.152
AAAAAAAC | 0.169
ACCCCGTA | -0.154
GCTGCACA | -0.00473
ACTTGAGG | 0.08
CAAGGACG | -0.238
ACCTAACA | -0.00971
AGACTTTA | 0.214
AGCACAGA | -0.104
GAAATCTA | 0.0481
ATGTCTGG | -0.153
AGAATTCT | 0.318
CCTGTCGC | -0.146
AGGGAATG | -0.0716
AGACAGTG | -0.0148
CCTTTTTC | -0.162
GTAGTTTA | 0.297
GAATAGCA | 0.0291
ATTGTACA | 0.265
TTATGCAA | 0.259
AAGTACGC | -0.0173
ACGCTGGC | -0.00461

Sequence | PBM 8-mer E-score
AACAGTAC | 0.144
CTTGAGGC | -0.134
GTGACAGA | -0.202
ACTGAACG | -0.0445
CAAAGGCC | -0.24
ACGGGCCA | -0.128
CGCCGGCA | -0.168
CCGACCCA | -0.157
GACTGTGC | -0.117
CCCCTGCG | -0.275
TGACTCAA | -0.0294
ATCCAAAT | -0.0305
GAAAACCA | -0.0697
ATCGCATA | 0.08
ATGGGATA | 0.11
ACTGCTCA | -0.166
GGTCCTTA | -0.169
AGATTCCG | -0.0153
GCGGGCCC | -0.31
